The values that follow come from the antibiotic and cytotoxicity screens of Wong et al. (2023).

This is one part of the list.

The subject of one assay is HSkMC. In words: cytotoxicity call (relative viability < 0.9). As to conditions: 10 µM.
Another assay relates to HepG2. In words: cytotoxicity call (relative viability < 0.9). As to conditions: 10 µM.
Another assay concerns S. aureus RN4220. The assay can be described thus: growth inhibition call (relative growth <= 0.2). The conditions noted are these: 50 µM.

On to `NCCN1CCC[C@H](C(N)=O)C1`, for which the cytotoxicity call in the assay on HSkMC and in the assay with HepG2 was “inactive” each time. For the same compound, in the assay on S. aureus RN4220, the growth inhibition call was “inactive”.
`COCC#Cc1ccc([C@@H]2[C@@H](CO)N3C(=O)CN(C(=O)c4ccncc4)C[C@H]23)cc1`: the cytotoxicity call in the assay with HSkMC and in the assay on HepG2 was “inactive” in each case. The growth inhibition call in the assay on S. aureus RN4220 was “inactive”.
Turning to `C[C@H]1CCCCO[C@@H](CN(C)Cc2ccc(C(=O)O)cc2)[C@@H](C)CN([C@@H](C)CO)C(=O)c2cc(NC(=O)Nc3ccccc3)ccc2O1`, the cytotoxicity call in the assay on HSkMC and with HepG2 was “inactive” throughout. The growth inhibition call in the assay with S. aureus RN4220 is “inactive”.
For the compound `CC(C)NC(=O)N(C)C[C@@H]1Oc2ccc(NS(=O)(=O)c3cn(C)cn3)cc2C(=O)N([C@H](C)CO)C[C@@H]1C`, the cytotoxicity call in the assay with HSkMC and in the assay with HepG2 was “inactive” throughout. The growth inhibition call in the assay on S. aureus RN4220 is “inactive”.
With `C[C@@H]1CN([C@H](C)CO)C(=O)c2cc(NC(=O)NC3CCCCC3)ccc2O[C@@H](C)CCCCO[C@@H]1CN(C)Cc1ccc(C(=O)O)cc1`, the cytotoxicity call in the assay with HSkMC and with HepG2 was “inactive” each time. Also, in the assay on S. aureus RN4220, the growth inhibition call was “inactive”.
`C[C@@H]1CN([C@@H](C)CO)C(=O)c2cc(NC(=O)Nc3ccc(C(F)(F)F)cc3)ccc2O[C@@H]1CN(C)C(=O)Nc1ccccc1`: the cytotoxicity call with HSkMC is “active”. Also, the cytotoxicity call with HepG2 was “inactive”. For the same compound, in the assay on S. aureus RN4220, the growth inhibition call is “inactive”.
As to `COc1ccccc1-c1cccc(-c2nc(C(=O)N3CCCCC3)cc3c2[C@H](CCO)N([S@@](=O)C(C)(C)C)C3)c1`, the cytotoxicity call with HSkMC and with HepG2 was “inactive” throughout. Besides, in the assay with S. aureus RN4220, the growth inhibition call was “inactive”.
`Cc1noc(C)c1NC(=O)Nc1ccc2c(c1)CC(=O)N([C@@H](C)CO)C[C@@H](C)[C@@H](CN(C)CC1CC1)O2`: the cytotoxicity call in the assay on HSkMC and in the assay with HepG2 was “inactive” each time. In the assay on S. aureus RN4220, the growth inhibition call was “inactive”.
As to `CS(=O)(=O)N1C[C@@H]2OCCN(c3cnccn3)[C@H]2C1`, the cytotoxicity call with HSkMC and in the assay on HepG2 was “inactive” each time. Besides, in the assay with S. aureus RN4220, the growth inhibition call is “inactive”.
As for `COc1ccc2c3c(n(c2c1)C)[C@@H](CO)N(C[C@]13CCN(CC1)C(=O)c1ccccc1F)C(=O)Nc1ccc(cc1)F`, the cytotoxicity call in the assay with HSkMC and in the assay on HepG2 was “inactive” throughout. Also, the growth inhibition call in the assay with S. aureus RN4220 was “inactive”.
As for `CN(C)CCNc1cn[nH]c(=O)c1Cl`, the cytotoxicity call in the assay on HSkMC and in the assay on HepG2 was “inactive” each time. The growth inhibition call in the assay on S. aureus RN4220 was “inactive”.
`CCN1[C@H](C(=O)NCCc2cn(C)cn2)[C@@H](CO)[C@@H]2Cn3c(ccc(-c4cccnc4)c3=O)[C@@H]21`: the cytotoxicity call in the assay with HSkMC and in the assay on HepG2 was “inactive” in each case. In addition, the growth inhibition call with S. aureus RN4220 is “inactive”.
Regarding `CC(C)CC#Cc1cnc2c(c1)C(=O)N([C@H](C)CO)C[C@H](C)[C@@H](CN(C)S(=O)(=O)c1ccccc1)O2`, the cytotoxicity call in the assay on HSkMC and in the assay on HepG2 was “inactive” each time. For the same compound, the growth inhibition call with S. aureus RN4220 is “inactive”.
As for `C[C@@H]1CN([C@@H](C)CO)C(=O)c2cc(NC(=O)Nc3ccc(C(F)(F)F)cc3)ccc2O[C@H]1CN(C)S(C)(=O)=O`, the cytotoxicity call in the assay on HSkMC and in the assay with HepG2 was “inactive” throughout. Besides, in the assay with S. aureus RN4220, the growth inhibition call is “inactive”.
Consider `CC(C)NC(=O)Nc1ccc2c(c1)C(=O)N([C@@H](C)CO)C[C@H](C)[C@@H](CN(C)C(=O)Nc1ccc3c(c1)OCO3)O2`, for which the cytotoxicity call in the assay with HSkMC and in the assay on HepG2 was “inactive” in each case. The growth inhibition call in the assay on S. aureus RN4220 is “inactive”.
For `CN(C)CC(=O)N1[C@@H]2Cn3c(cccc3=O)[C@H]1[C@@H](C(=O)NCc1ccccc1)[C@@H]2CO`, the cytotoxicity call with HSkMC and in the assay on HepG2 was “inactive” throughout. For the same compound, in the assay on S. aureus RN4220, the growth inhibition call is “inactive”.
For the compound `C[C@@H]1CCCCO[C@H](CN(C)C(=O)Cc2ccccc2)[C@H](C)CN([C@H](C)CO)C(=O)c2cc(NS(=O)(=O)c3ccc(F)cc3)ccc2O1`, the cytotoxicity call in the assay on HSkMC and in the assay on HepG2 was “inactive” each time. For the same compound, in the assay with S. aureus RN4220, the growth inhibition call is “inactive”.
`C[C@H]1CN([C@@H](C)CO)C(=O)c2cc(C#CC3(O)CCCC3)cnc2O[C@@H]1CN(C)C(=O)Cc1ccccc1`: the cytotoxicity call in the assay on HSkMC and in the assay on HepG2 was “inactive” throughout. Further, in the assay on S. aureus RN4220, the growth inhibition call is “inactive”.
For the compound `COCCNC(=O)C[C@@H]1C[C@@H]2c3cc(NC(=O)COC)ccc3O[C@@H]2[C@@H](CO)O1`, the cytotoxicity call in the assay on HSkMC and in the assay on HepG2 was “inactive” throughout. In the assay with S. aureus RN4220, the growth inhibition call was “inactive”.
Consider `Cc1noc(C)c1S(=O)(=O)N(C)C[C@@H]1Oc2c(NS(=O)(=O)c3ccccc3)cccc2C(=O)N([C@H](C)CO)C[C@@H]1C`, for which the cytotoxicity call with HSkMC and with HepG2 was “inactive” in each case. Moreover, the growth inhibition call in the assay on S. aureus RN4220 was “inactive”.
Turning to `C[C@@H]1CCCCO[C@@H](CN(C)C(=O)c2ccccc2)[C@@H](C)CN([C@@H](C)CO)C(=O)c2cc(NC(=O)Cc3ccccc3)ccc2O1`, the cytotoxicity call with HSkMC and in the assay with HepG2 was “inactive” throughout. Moreover, the growth inhibition call in the assay with S. aureus RN4220 is “inactive”.
Turning to `O=C(C[C@H]1CC[C@H](NS(=O)(=O)c2ccc(F)cc2)[C@@H](CO)O1)NCc1ccc(Cl)c(Cl)c1`, the cytotoxicity call in the assay with HSkMC and in the assay with HepG2 was “inactive” each time. The growth inhibition call with S. aureus RN4220 was “inactive”.
For the compound `O=C(C[C@H]1C=C[C@@H](NC(=O)c2cccnc2)[C@H](CO)O1)NCCN1CCCCC1`, the cytotoxicity call in the assay with HSkMC and in the assay with HepG2 was “inactive” each time. Also, the growth inhibition call in the assay with S. aureus RN4220 is “inactive”.
Consider `COc1ccccc1-c1ccc2c(c1)O[C@@H](CN(C)C(=O)c1ccncc1)[C@@H](C)CN([C@H](C)CO)S2(=O)=O`, for which the cytotoxicity call with HSkMC and in the assay on HepG2 was “inactive” each time. Besides, in the assay on S. aureus RN4220, the growth inhibition call was “inactive”.
Take `Cc1ccc(S(=O)(=O)N(C)C[C@H]2Oc3c(NS(C)(=O)=O)cccc3C(=O)N([C@H](C)CO)C[C@H]2C)cc1`: the cytotoxicity call in the assay on HSkMC and with HepG2 was “inactive” each time. The growth inhibition call in the assay with S. aureus RN4220 was “inactive”.
As to `C[C@@H]1CN([C@H](C)CO)C(=O)Cc2cc(N(C)C)ccc2O[C@@H]1CN(C)S(=O)(=O)c1ccc(F)cc1`, the cytotoxicity call in the assay on HSkMC (human skeletal muscle cells) and in the assay on HepG2 was “inactive” in each case. For the same compound, the growth inhibition call in the assay on S. aureus RN4220 was “inactive”.
